# Test results published in the supplement of paper PMC11876631.
# ± gives the standard deviation of the averaged measurements. Laboratory Escherichia coli strains with one amino-acid change in an essential protein, pooled on minimal glucose agar with carbenicillin or gentamicin at twice the control MIC (plus kanamycin and chloramphenicol for the plasmids), 48 h. Fold change of barcode share against drug-free plates; higher = less susceptible. Active = above 20 in both replicates (the paper's putatively resistant). '<' = one read or none on drug, '>' = one read or none on a drug-free plate. Shares are relative, so most strains fall below 1 when a few take over. Listed are strains with at least 15 reads on both drug-free plates, and hits; most hits rest on fewer reference reads. Replicate rank correlation about 0.5. Edits are read from barcodes.
# B1: ligA I289P (protein)
# chain: MESIEQQLTELRTTLRHHEYLYHVMDAPEIPDAEYDRLMRELRELETKHPELITPDSPTQRVGAAPLAAFSQIRHEVPMLSLDNVFDEESFLAFNKRVQDRLKNNEKVTWCCELKLDGLAVSILYENGVLVSAATRGDGTTGEDITSNVRTIRAIPLKLHGENIPARLEVRGEVFLPQAGFEKINEDARRTGGKVFANPRNAAAGSLRQLDPRITAKRPLTFFCYGVGVLEGGELPDTHLGRLLQFKKWGLPVSDRVTLCESAEEVLAFYHKVEEDRPTLGFDIDGVVPKVNSLAQQEQLGFVARAPRWAVAFKFPAQEQMTFVRDVEFQVGRTGAITPVARLEPVHVAGVLVSNATLHNADEIERLGLRIGDKVVIRRAGDVIPQVVNVVLSERPEDTREVVFPTHCPVCGSDVERVEGEAVARCTGGLICGAQRKESLKHFVSRRAMDVDGMGDKIIDQLVEKEYVHTPADLFKLTAGKLTGLERMGPKSAQNVVNALEKAKETTFARFLYALGIREVGEATAAGLAAYFGTLEALEAASIEELQKVPDVGIVVASHVHNFFAEESNRNVISELLAEGVHWPAPIVINAEEIDSPFAGKTVVLTGSLSQMSRDDAKARLVELGAKVAGSVSKKTDLVIAGEAAGSKLAKAQELGIEVIDEAEMLRLLGS
# B2: ligA L512W (protein)
# chain: MESIEQQLTELRTTLRHHEYLYHVMDAPEIPDAEYDRLMRELRELETKHPELITPDSPTQRVGAAPLAAFSQIRHEVPMLSLDNVFDEESFLAFNKRVQDRLKNNEKVTWCCELKLDGLAVSILYENGVLVSAATRGDGTTGEDITSNVRTIRAIPLKLHGENIPARLEVRGEVFLPQAGFEKINEDARRTGGKVFANPRNAAAGSLRQLDPRITAKRPLTFFCYGVGVLEGGELPDTHLGRLLQFKKWGLPVSDRVTLCESAEEVLAFYHKVEEDRPTLGFDIDGVVIKVNSLAQQEQLGFVARAPRWAVAFKFPAQEQMTFVRDVEFQVGRTGAITPVARLEPVHVAGVLVSNATLHNADEIERLGLRIGDKVVIRRAGDVIPQVVNVVLSERPEDTREVVFPTHCPVCGSDVERVEGEAVARCTGGLICGAQRKESLKHFVSRRAMDVDGMGDKIIDQLVEKEYVHTPADLFKLTAGKLTGLERMGPKSAQNVVNALEKAKETTFARFWYALGIREVGEATAAGLAAYFGTLEALEAASIEELQKVPDVGIVVASHVHNFFAEESNRNVISELLAEGVHWPAPIVINAEEIDSPFAGKTVVLTGSLSQMSRDDAKARLVELGAKVAGSVSKKTDLVIAGEAAGSKLAKAQELGIEVIDEAEMLRLLGS
# B3: ligA V121A (protein)
# chain: MESIEQQLTELRTTLRHHEYLYHVMDAPEIPDAEYDRLMRELRELETKHPELITPDSPTQRVGAAPLAAFSQIRHEVPMLSLDNVFDEESFLAFNKRVQDRLKNNEKVTWCCELKLDGLAASILYENGVLVSAATRGDGTTGEDITSNVRTIRAIPLKLHGENIPARLEVRGEVFLPQAGFEKINEDARRTGGKVFANPRNAAAGSLRQLDPRITAKRPLTFFCYGVGVLEGGELPDTHLGRLLQFKKWGLPVSDRVTLCESAEEVLAFYHKVEEDRPTLGFDIDGVVIKVNSLAQQEQLGFVARAPRWAVAFKFPAQEQMTFVRDVEFQVGRTGAITPVARLEPVHVAGVLVSNATLHNADEIERLGLRIGDKVVIRRAGDVIPQVVNVVLSERPEDTREVVFPTHCPVCGSDVERVEGEAVARCTGGLICGAQRKESLKHFVSRRAMDVDGMGDKIIDQLVEKEYVHTPADLFKLTAGKLTGLERMGPKSAQNVVNALEKAKETTFARFLYALGIREVGEATAAGLAAYFGTLEALEAASIEELQKVPDVGIVVASHVHNFFAEESNRNVISELLAEGVHWPAPIVINAEEIDSPFAGKTVVLTGSLSQMSRDDAKARLVELGAKVAGSVSKKTDLVIAGEAAGSKLAKAQELGIEVIDEAEMLRLLGS
# B4: ligA V353P (protein)
# chain: MESIEQQLTELRTTLRHHEYLYHVMDAPEIPDAEYDRLMRELRELETKHPELITPDSPTQRVGAAPLAAFSQIRHEVPMLSLDNVFDEESFLAFNKRVQDRLKNNEKVTWCCELKLDGLAVSILYENGVLVSAATRGDGTTGEDITSNVRTIRAIPLKLHGENIPARLEVRGEVFLPQAGFEKINEDARRTGGKVFANPRNAAAGSLRQLDPRITAKRPLTFFCYGVGVLEGGELPDTHLGRLLQFKKWGLPVSDRVTLCESAEEVLAFYHKVEEDRPTLGFDIDGVVIKVNSLAQQEQLGFVARAPRWAVAFKFPAQEQMTFVRDVEFQVGRTGAITPVARLEPVHVAGVLPSNATLHNADEIERLGLRIGDKVVIRRAGDVIPQVVNVVLSERPEDTREVVFPTHCPVCGSDVERVEGEAVARCTGGLICGAQRKESLKHFVSRRAMDVDGMGDKIIDQLVEKEYVHTPADLFKLTAGKLTGLERMGPKSAQNVVNALEKAKETTFARFLYALGIREVGEATAAGLAAYFGTLEALEAASIEELQKVPDVGIVVASHVHNFFAEESNRNVISELLAEGVHWPAPIVINAEEIDSPFAGKTVVLTGSLSQMSRDDAKARLVELGAKVAGSVSKKTDLVIAGEAAGSKLAKAQELGIEVIDEAEMLRLLGS
# B5: ligA L512A (protein)
# chain: MESIEQQLTELRTTLRHHEYLYHVMDAPEIPDAEYDRLMRELRELETKHPELITPDSPTQRVGAAPLAAFSQIRHEVPMLSLDNVFDEESFLAFNKRVQDRLKNNEKVTWCCELKLDGLAVSILYENGVLVSAATRGDGTTGEDITSNVRTIRAIPLKLHGENIPARLEVRGEVFLPQAGFEKINEDARRTGGKVFANPRNAAAGSLRQLDPRITAKRPLTFFCYGVGVLEGGELPDTHLGRLLQFKKWGLPVSDRVTLCESAEEVLAFYHKVEEDRPTLGFDIDGVVIKVNSLAQQEQLGFVARAPRWAVAFKFPAQEQMTFVRDVEFQVGRTGAITPVARLEPVHVAGVLVSNATLHNADEIERLGLRIGDKVVIRRAGDVIPQVVNVVLSERPEDTREVVFPTHCPVCGSDVERVEGEAVARCTGGLICGAQRKESLKHFVSRRAMDVDGMGDKIIDQLVEKEYVHTPADLFKLTAGKLTGLERMGPKSAQNVVNALEKAKETTFARFAYALGIREVGEATAAGLAAYFGTLEALEAASIEELQKVPDVGIVVASHVHNFFAEESNRNVISELLAEGVHWPAPIVINAEEIDSPFAGKTVVLTGSLSQMSRDDAKARLVELGAKVAGSVSKKTDLVIAGEAAGSKLAKAQELGIEVIDEAEMLRLLGS
# B6: ligA L512Q (protein)
# chain: MESIEQQLTELRTTLRHHEYLYHVMDAPEIPDAEYDRLMRELRELETKHPELITPDSPTQRVGAAPLAAFSQIRHEVPMLSLDNVFDEESFLAFNKRVQDRLKNNEKVTWCCELKLDGLAVSILYENGVLVSAATRGDGTTGEDITSNVRTIRAIPLKLHGENIPARLEVRGEVFLPQAGFEKINEDARRTGGKVFANPRNAAAGSLRQLDPRITAKRPLTFFCYGVGVLEGGELPDTHLGRLLQFKKWGLPVSDRVTLCESAEEVLAFYHKVEEDRPTLGFDIDGVVIKVNSLAQQEQLGFVARAPRWAVAFKFPAQEQMTFVRDVEFQVGRTGAITPVARLEPVHVAGVLVSNATLHNADEIERLGLRIGDKVVIRRAGDVIPQVVNVVLSERPEDTREVVFPTHCPVCGSDVERVEGEAVARCTGGLICGAQRKESLKHFVSRRAMDVDGMGDKIIDQLVEKEYVHTPADLFKLTAGKLTGLERMGPKSAQNVVNALEKAKETTFARFQYALGIREVGEATAAGLAAYFGTLEALEAASIEELQKVPDVGIVVASHVHNFFAEESNRNVISELLAEGVHWPAPIVINAEEIDSPFAGKTVVLTGSLSQMSRDDAKARLVELGAKVAGSVSKKTDLVIAGEAAGSKLAKAQELGIEVIDEAEMLRLLGS
# B7: lipA I22A (protein)
# chain: MSKPIVMERGVKYRDADKMALAPVKNVATEREALLRKPEWMKIKLPADSTRIQGIKAAMRKNGLHSVCEEASCPNLAECFNHGTATFMILGAICTRRCPFCDVAHGRPVAPDANEPVKLAQTIADMALRYVVITSVDRDDLRDGGAQHFADCITAIREKSPQIKIETLVPDFRGRMDRALDILTATPPDVFNHNLENVPRIYRQVRPGADYNWSLKLLERFKEAHPEIPTKSGLMVGLGETNEEIIEVMRDLRRHGVTMLTLGQYLQPSRHHLPVQRYVSPDEFDEMKAEALAMGFTHAACGPFVRSSYHADLQAKGMEVK
# B8: lipA I22Q (protein)
# chain: MSKPIVMERGVKYRDADKMALQPVKNVATEREALLRKPEWMKIKLPADSTRIQGIKAAMRKNGLHSVCEEASCPNLAECFNHGTATFMILGAICTRRCPFCDVAHGRPVAPDANEPVKLAQTIADMALRYVVITSVDRDDLRDGGAQHFADCITAIREKSPQIKIETLVPDFRGRMDRALDILTATPPDVFNHNLENVPRIYRQVRPGADYNWSLKLLERFKEAHPEIPTKSGLMVGLGETNEEIIEVMRDLRRHGVTMLTLGQYLQPSRHHLPVQRYVSPDEFDEMKAEALAMGFTHAACGPFVRSSYHADLQAKGMEVK
# B9: lipA I22W (protein)
# chain: MSKPIVMERGVKYRDADKMALWPVKNVATEREALLRKPEWMKIKLPADSTRIQGIKAAMRKNGLHSVCEEASCPNLAECFNHGTATFMILGAICTRRCPFCDVAHGRPVAPDANEPVKLAQTIADMALRYVVITSVDRDDLRDGGAQHFADCITAIREKSPQIKIETLVPDFRGRMDRALDILTATPPDVFNHNLENVPRIYRQVRPGADYNWSLKLLERFKEAHPEIPTKSGLMVGLGETNEEIIEVMRDLRRHGVTMLTLGQYLQPSRHHLPVQRYVSPDEFDEMKAEALAMGFTHAACGPFVRSSYHADLQAKGMEVK
# Target: Escherichia coli (laboratory strain)
# Assay: barcode share on antibiotic plates over drug-free plates; higher = less susceptible
# Details: antibiotic: carbenicillin; 2× MIC (3.1 µg/mL)
# Description: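 A pool of E. coli strains, each edited to carry one amino-acid change in an essential protein, was grown for 48 h on minimal glucose agar with or without antibiotic; strain barcodes were sequenced; mean of two replicates.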
row,Protein,fold change of barcode share
1,B1,0.278 ± 0.06
2,B2,0.294 ± 0.041
3,B3,0.274 ± 0.045
4,B4,0.3569 ± 0.002
5,B5,0.368 ± 0.13
6,B6,0.358 ± 0.082
7,B7,0.502 ± 0.13
8,B8,0.982 ± 0.011
9,B9,0.495 ± 0.019

# Same assay, conditions: antibiotic: gentamicin; 2× MIC (MIC 0.45 µg/mL)
row,Protein,fold change of barcode share
1,B1,< 0.0171
2,B2,< 0.00907
3,B3,< 0.00394
4,B5,0.0154 ± 0.017
5,B6,< 0.00894
6,B7,26.2 ± 31
7,B8,70 [active]
8,B9,21.3 ± 25
